Data from PubChem BioAssay (NCI).
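Assay format: 96-well plates, 48-hour exposure. TGI marks complete inhibition of growth.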 Some entries of the source have several records that differ or are many. They are shown here; other results are not. There may be further records. Values that stand side by side repeat one measurement in other runs, samples, wells, individuals or studies. Marks in square brackets tell the records apart. Letters hold for one entry only.

Tested on: MDA-MB-468 breast
Assay: growth of human tumour cells (NCI), 48 h

CN(C)c1ccc(/C=C(\C#N)c2ccccc2)cc1
TGI: > 100 µM [sample A, 1 test] and 73.3 µM [sample B, 1 test] and 1.48 µM [sample C, 1 test]
